Data on 18 molecules can be found in US12312356B2, “Anthelmintic heterocyclic compounds” (Boehringer Ingelheim Vetmedica GmbH, priority 2020, dated 2025).

In this assay the test system is L1 Haemonchus contortus larvae. The assay is described as follows: Screening method to test activity against Haemonchus contortus (larval development L1 to L3, dose response). Conditions: 96 h, read-out: EC50 value (development of the larvae from L1 to L3). From the text: Screening Method to Test Activity of Compounds Against Haemonchus contortus

SMILES strings stand for the structures.

For the molecule `Cc1nc2c(C(C)C)c(C(=O)N[C@H]3CCOc4ccccc43)cnn2c1-c1cc(Cl)cc(Cl)c1` [Compound 271, 3-(3,5-dichlorophenyl)-N-[(4S)-3,4-dihydro-2H-1-benzopyran-4-yl]-8-isopropyl-2-methylimidazo[1,2-b]pyridazine-7-carboxamide], the EC50 was less than 0.01 µM.
For the molecule `Cc1nc2c(C(C)C)c(C(=O)N[C@H]3CCOc4ccccc43)cnn2c1[C@H]1CC[C@H](C(F)(F)F)CC1` [Compound 326, N-[(4S)-3,4-dihydro-2H-1-benzopyran-4-yl]-8-isopropyl-2-methyl-3-[(1r,4r)-4-(trifluoromethyl)cyclohexyl]imidazo[1,2-b]pyridazine-7-carboxamide], the EC50 is 1 to 10 µM.
Turning to `Cc1nc2c(C(C)C)c(C(=O)N[C@H]3CCOc4ccccc43)cnn2c1C1=CCC(C(F)(F)F)CC1` (stereo partly drawn) [Compound 327, N-[(4S)-3,4-dihydro-2H-1-benzopyran-4-yl]-8-isopropyl-2-methyl-3-[4-(trifluoromethyl)cyclohex-1-en-1-yl]imidazo[1,2-b]pyridazine-7-carboxamide], the EC50 lay within 0.1 to 1 µM.
The figure for `Cc1nc2c(C(C)(C)C)c(C(=O)N[C@H]3CCOc4ccccc43)cnn2c1-c1cc(Cl)cc(Cl)c1` [Compound 306, 8-tert-butyl-3-(3,5-dichlorophenyl)-N-[(4S)-3,4-dihydro-2H-1-benzopyran-4-yl]-2-methylimidazo[1,2-b]pyridazine-7-carboxamide] is less than 0.01 µM; for `Cc1nc2c(C(C)C)c(C(=O)N[C@H]3CCOc4ccccc43)cnn2c1[C@H]1CC[C@@H](C(F)(F)F)CC1` [Compound 326-0, N—((S)-chroman-4-yl)-8-isopropyl-2-methyl-3-((1s,4R)-4-(trifluoromethyl)cyclohexyl)imidazo[1,2-b]pyridazine-7-carboxamide] it is 0.01 to 0.1 µM.
The figure for `CC(C)c1c(C(=O)N[C@H]2CCOc3ccc(F)cc32)cnn2c(Cl)c(-c3cc(Cl)cc(Cl)c3)nc12` [Compound 304-0, 3-chloro-2-(3,5-dichlorophenyl)-N-[(4S)-6-fluoro-3,4-dihydro-2H-1-benzopyran-4-yl]-8-isopropylimidazo[1,2-b]pyridazine-7-carboxamide] is 1 to 10 µM; for `Cc1nc2c(C(C)C)c(C(=O)N[C@H]3CCOc4ccccc43)cnn2c1CC(C)C` [Compound 323-0, N-[(4S)-3,4-dihydro-2H-1-benzopyran-4-yl]-2-methyl-3-(2-methylpropyl)-8-(propan-2-yl)imidazo[1,2-b]pyridazine-7-carboxamide] it is 1 to 10 µM; for `Cc1nc2c(C(C)C)c(C(=O)N[C@H]3CCOc4ccccc43)cnn2c1C#N` [Compound 366, 3-cyano-N-[(4S)-3,4-dihydro-2H-1-benzopyran-4-yl]-8-isopropyl-2-methylimidazo[1,2-b]pyridazine-7-carboxamide] it is 1 to 10 µM.
Consider `Cc1nc2c(C(C)C)c(NC(=O)[C@@H]3CCOc4ccccc43)cnn2c1-c1cc(F)cc(F)c1` [Compound 320-0, (4R)—N-[3-(3,5-difluorophenyl)-8-isopropyl-2-methylimidazo[1,2-b]pyridazin-7-yl]-3,4-dihydro-2H-1-benzopyran-4-carboxamide], for which the concentration for a half-maximal effect (EC50) was in the range of 1 to 10 µM.
Regarding `Cc1nc2c(C(C)C)c(C(=O)N[C@H]3CCOc4ccccc43)cnn2c1-c1cc(F)cc(F)c1` [Compound 175, 3-(3,5-difluorophenyl)-N-[(4S)-3,4-dihydro-2H-1-benzopyran-4-yl]-8-isopropyl-2-methylimidazo[1,2-b]pyridazine-7-carboxamide], the EC50 lay in the range of 0.01 to 0.1 µM.
Take `COc1c(C(=O)N[C@H]2CCOc3ccccc32)cnn2c(-c3cc(Cl)cc(Cl)c3)cnc12` [Compound 394, 3-(3,5-dichlorophenyl)-N-[(4S)-3,4-dihydro-2H-1-benzopyran-4-yl]-8-methoxyimidazo[1,2-b]pyridazine-7-carboxamide]: the EC50 was 1 to 10 µM.
The figure for `Cc1nc2c(C(C)(C)F)c(C(=O)N[C@H]3CCOc4ccccc43)cnn2c1-c1cc(F)cc(F)c1` [Compound 277, 3-(3,5-difluorophenyl)-N-[(4S)-3,4-dihydro-2H-1-benzopyran-4-yl]-8-(2-fluoropropan-2-yl)-2-methylimidazo[1,2-b]pyridazine-7-carboxamide] is 0.01 to 0.1 µM; for `Cc1nc2c(C(C)C)c(NC(=O)[C@H]3CCOc4ccccc43)cnn2c1-c1cc(F)cc(F)c1` [Compound 320, (4S)—N-[3-(3,5-difluorophenyl)-8-isopropyl-2-methylimidazo[1,2-b]pyridazin-7-yl]-3,4-dihydro-2H-1-benzopyran-4-carboxamide] it is 0.1 to 1 µM; for `CC(C)c1c(C(=O)N[C@H]2CCOc3ccccc32)cnn2c(-c3cc(Cl)cc(Cl)c3)cnc12` [Compound 352, 3-(3,5-dichlorophenyl)-N-[(4S)-3,4-dihydro-2H-1-benzopyran-4-yl]-8-isopropylimidazo[1,2-b]pyridazine-7-carboxamide] it is 0.1 to 1 µM.
The figure for `Cc1nc2c(C(C)C)c(C(=O)N[C@H]3CCOc4ccccc43)cnn2c1N1CCCCC1` [Compound 324, N-[(4S)-3,4-dihydro-2H-1-benzopyran-4-yl]-8-isopropyl-2-methyl-3-(piperidin-1-yl)imidazo[1,2-b]pyridazine-7-carboxamide] is 0.1 to 1 µM; for `Cc1nc2c(C(C)C)c(C(=O)N[C@H]3CCOc4ccccc43)cnn2c1C(C)(C)C` [Compound 323, 3-tert-butyl-N-[(4S)-3,4-dihydro-2H-1-benzopyran-4-yl]-8-isopropyl-2-methylimidazo[1,2-b]pyridazine-7-carboxamide] it is 1 to 10 µM; for `C=C(C)c1c(C(=O)N[C@H]2CCOc3ccccc32)cnn2c(-c3cc(F)cc(F)c3)c(C)nc12` [Compound 279, 3-(3,5-difluorophenyl)-N-[(4S)-3,4-dihydro-2H-1-benzopyran-4-yl]-2-methyl-8-(prop-1-en-2-yl)imidazo[1,2-b]pyridazine-7-carboxamide] it is 0.1 to 1 µM.
`O=C(N[C@H]1CCOc2ccccc21)c1cnn2c(-c3c(F)cccc3F)cnc2c1` [Compound 174, 3-(2,6-difluorophenyl)-N-[(4S)-3,4-dihydro-2H-1-benzopyran-4-yl]imidazo[1,2-b]pyridazine-7-carboxamide]: the EC50 fell in the range of 1 to 10 µM.

The term EC50 denotes the concentration that produces a half-maximal response.
